Laboratory results published in publication PMC4336329 (PLoS ONE, 2015).
Among all 310,000 compounds or so, about 14,000 (4.5%) showed an effect of 50% or more. The effect is printed as a negative number. Some of the results follow.

Target: human ether-à-go-go-related gene (hERG) potassium channel (human, UniProt Q12809)
Assay: primary screen, population patch clamp on CHO cells stably expressing hERG
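Also: peak tail current of the secondary pulse compared with the same well before compound.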

Chain of human ether-à-go-go-related gene (hERG) potassium channel (Q12809 whole entry, looked up): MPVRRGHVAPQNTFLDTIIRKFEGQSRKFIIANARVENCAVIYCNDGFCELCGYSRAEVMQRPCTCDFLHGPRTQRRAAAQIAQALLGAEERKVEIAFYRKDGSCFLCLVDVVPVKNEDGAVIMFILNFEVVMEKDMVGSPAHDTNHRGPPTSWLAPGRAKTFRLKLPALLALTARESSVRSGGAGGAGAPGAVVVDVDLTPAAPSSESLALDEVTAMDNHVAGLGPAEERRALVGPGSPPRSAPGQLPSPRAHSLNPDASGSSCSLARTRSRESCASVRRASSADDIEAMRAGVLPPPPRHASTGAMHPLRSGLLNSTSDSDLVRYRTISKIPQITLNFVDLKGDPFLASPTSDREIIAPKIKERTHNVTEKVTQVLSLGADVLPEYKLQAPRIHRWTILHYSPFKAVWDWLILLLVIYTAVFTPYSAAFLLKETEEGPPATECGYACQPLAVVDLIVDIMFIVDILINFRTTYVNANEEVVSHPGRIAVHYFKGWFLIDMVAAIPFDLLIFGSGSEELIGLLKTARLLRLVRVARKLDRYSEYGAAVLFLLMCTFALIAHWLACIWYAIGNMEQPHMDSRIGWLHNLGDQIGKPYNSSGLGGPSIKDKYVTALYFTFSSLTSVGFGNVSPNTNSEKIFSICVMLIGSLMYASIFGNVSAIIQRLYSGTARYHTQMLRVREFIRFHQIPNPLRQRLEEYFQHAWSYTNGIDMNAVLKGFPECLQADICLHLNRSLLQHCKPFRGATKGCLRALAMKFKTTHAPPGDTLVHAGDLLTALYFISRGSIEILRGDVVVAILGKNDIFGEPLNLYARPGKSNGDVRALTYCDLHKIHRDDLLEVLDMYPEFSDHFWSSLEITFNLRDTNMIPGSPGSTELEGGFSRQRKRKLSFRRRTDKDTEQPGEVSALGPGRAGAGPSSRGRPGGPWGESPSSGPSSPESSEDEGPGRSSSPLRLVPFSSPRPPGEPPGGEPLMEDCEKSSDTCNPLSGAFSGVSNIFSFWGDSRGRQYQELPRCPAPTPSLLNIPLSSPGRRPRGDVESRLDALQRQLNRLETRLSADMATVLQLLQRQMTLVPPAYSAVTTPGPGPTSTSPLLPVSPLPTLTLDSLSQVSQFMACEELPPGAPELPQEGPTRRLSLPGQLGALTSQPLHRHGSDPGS

SMILES	hERG current change (%, negative = inhibition) at 10uM
Cc1c(CC(=O)O)c(=O)oc2cc3occ(-c4ccc(F)cc4)c3cc12	20.5%
CCC(C)N(C(=O)Cn1nnc2ccccc21)C(C(=O)Nc1ccc(F)cc1)c1cccc(OC)c1 (centres unmarked)	-18.8%
COc1ccccc1OCC(=O)N/N=C1/C=C(C)CC1	-3.82%
CSCC[C@H](NC(=O)OC(C)(C)C)c1nnc(SCc2ccc(F)cc2)o1	-46.2%
CCOc1ncccc1C(=O)Nc1ccc(S(=O)(=O)Nc2nccs2)cc1	1.52%
Cc1ccc(S(=O)(=O)N2CCN(C(=O)CCN3C(=O)c4ccccc4C3=O)CC2)cc1C	-11.4%
O=C(Nc1ccc2ccccc2n1)c1ccccc1Br	9.14%
CCc1cc2cc(OC)ccc2nc1SCC(=O)Nc1cc(OC)c(OC)cc1C(=O)O	-9.97%
COCc1cc(C)[nH]c(=O)c1C(=O)NC12CC3CC(CC(C3)C1)C2	22.8%
Cc1ccc(C(C)(O)CS(=O)(=O)Cc2ccccc2)cc1 (centres unmarked)	10.5%
Cc1ccc(CSCC(=O)Nc2cc(S(=O)(=O)N3CCOCC3)ccc2OC(C)C)cc1	-30.5%
Cc1cc(C(F)(F)F)c2c(C)nn(-c3ccccc3)c2n1	5.56%
CCCc1cc(=O)oc2cc(C)cc(OC(C)C(=O)NCc3ccccn3)c12 (centres unmarked)	-8.3%
COC(=O)c1cccc(N(C(=O)c2ccco2)C(C(=O)NC2CCCC2)c2ccco2)c1 (centres unmarked)	-14.7%
COc1ccc([C@H]2CC(=O)C=C(c3ccccc3)C2)cc1	-6.86%
Cc1cc(Oc2ccccc2)nc(NCc2ccccc2)n1	-9.99%
O=C(Nc1ccccc1N1CCCC1)c1ccc(Br)o1	-22.4%
CCCCNC(=O)CC1Nc2ccccc2NC1=O (centres unmarked)	1.17%
CC/C(C)=N/Nc1nc(-c2cc3cccc(OC)c3oc2=O)cs1	8.59%
CC(C)CCC(C(=O)O)C(C)CC(=O)Nc1ccn(-c2ccccc2)n1 (centres unmarked)	14.6%
COc1cc(NC(=O)c2cccnc2SC)cc(OC)c1OC	13.2%
COc1ccc(OC)c(/C=N/NC(=O)c2ccncc2)c1	12.2%
NC(=O)c1ccc[n+]([C@H]2O[C@@H](COP(=O)([O-])OP(=O)(O)OC[C@H]3O[C@@H](n4cnc5c(N)ncnc54)[C@H](O)[C@@H]3O)[C@H](O)[C@@H]2O)c1	12.1%
